This is one part of the list. At the low end of the ranking the order means little. The protein was read in a cell extract, so binding may be indirect.

In publication PMC10726135 one finds binding signal (log2 normalized intensity) data, which are given here for 93 sequences.

In this assay the target is T1, HNF4alpha2 (COS-7 nuclear extract) (UniProt P41235).
T1 sequence: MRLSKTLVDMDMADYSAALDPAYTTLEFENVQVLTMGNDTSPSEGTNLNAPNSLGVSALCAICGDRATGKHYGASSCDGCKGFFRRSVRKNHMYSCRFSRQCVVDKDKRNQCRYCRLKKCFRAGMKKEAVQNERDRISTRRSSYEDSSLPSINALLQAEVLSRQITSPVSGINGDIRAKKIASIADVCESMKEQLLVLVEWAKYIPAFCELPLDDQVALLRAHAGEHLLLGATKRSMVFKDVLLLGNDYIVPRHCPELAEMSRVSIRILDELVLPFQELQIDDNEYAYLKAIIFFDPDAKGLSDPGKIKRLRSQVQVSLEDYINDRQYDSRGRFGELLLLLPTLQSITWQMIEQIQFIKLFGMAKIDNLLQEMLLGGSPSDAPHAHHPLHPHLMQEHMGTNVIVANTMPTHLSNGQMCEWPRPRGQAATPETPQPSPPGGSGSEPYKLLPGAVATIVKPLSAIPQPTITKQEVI
Kind of assay: protein-binding microarray. The note with it: COS-7 nuclear extract on double-stranded Agilent 4x180k PBM; binding buffer, salt, pH and temperature not given; high values mean tight binding; double strand, one strand shown; sequences stand for … in …GCCTAGGGAGATTAGAGTATCGGTCGA
Consider ATCTCAAATAGCTGGGTCTCACTCTGACCC, for which the binding signal (log2 normalized intensity) was 3.32.

As for CTGCTGGTTTTTGTCAAAGATAGTTGTAGT, the binding signal (log2 normalized intensity) turned out to be 2.1.

As to TGGGGACGCCCACTGCTTTGTTCCCTGGCT, the binding signal (log2 normalized intensity) is -1.13.

With CAGGGTCGGAATGTCTGGGCAAAGGGGAGG, the binding signal (log2 normalized intensity) was -1.09.

In the case of CTTCAGCCTCCCGAGTAGTTGGGTCAACAG, the binding signal (log2 normalized intensity) was 1.82.

As for GTAGGAAGGCTTTGAAGTCTGGTGGCAAGT, the binding signal (log2 normalized intensity) is 0.622.

Turning to CTCTCCTGAGGCAAGTCTCTTTTAGGCTGT, the binding signal (log2 normalized intensity) turned out to be 1.48.

As to TCACAGGAATGTTGGCAGCATCGTGTTGGG, the binding signal (log2 normalized intensity) is 1.03.

Take CACTAATTAACTGAGCCTCAGAACCATTTG: the binding signal (log2 normalized intensity) was -0.908.

With CATACTCAAAGAATTTAACACCAGATAAAC, the binding signal (log2 normalized intensity) was -1.13.

Take GAAGCTGGTAGCATGGCTCAGTCCAAGTCC: the binding signal (log2 normalized intensity) is -0.166.

Regarding GCCTTTAGGGCCCCCTGTGATTACTTCCAC, the binding signal (log2 normalized intensity) was determined as 1.84.

As for AGCGGGGGACCGAGAGCCGCCGCCGTGGGA, the binding signal (log2 normalized intensity) was -1.08.

On to TGGTGCAAATACCATCCCCAGAGCCGGAGC, for which the binding signal (log2 normalized intensity) came out at 3.27.

TCCCCTGACAGCATGTTCGGCTGAGACCTG: the binding signal (log2 normalized intensity) was found to be 0.132.

For TTGGTGACCAGTCTGCCTGACTCCAGAGTC, the binding signal (log2 normalized intensity) was -0.936.

AAATACACAGGTAAACATTTGCCTTTAGGG: the binding signal (log2 normalized intensity) was -0.512.

Consider GAATATTCAGATATTCCTGGAATGACAAGA, for which the binding signal (log2 normalized intensity) is 0.642.

As to AAAGGTCATTTCTGCTTGCAACCAAAGGAG, the binding signal (log2 normalized intensity) was found to be 1.52.

For AAGCAGGACAGCAGAGTGGAGGCCAGCGCC, the binding signal (log2 normalized intensity) was -1.09.

As for GTCCAGACACAAAGAGACAAAGCTTTGAAG, the binding signal (log2 normalized intensity) was -1.1.

In the case of AGAGTTAGGGCCTTGCTATGGAGTGGACTT, the binding signal (log2 normalized intensity) was found to be 3.25.

For GTGTTCCAGAGCCTCCAAAGTCCGCTTGCC, the binding signal (log2 normalized intensity) stood at 0.799.

For TAGCTTGGTGCAGGGGCGGGGCCGCGCGTC, the binding signal (log2 normalized intensity) was -1.12.

Take CGTATTATCTTATCTCCTCTGTAGGGCAGC: the binding signal (log2 normalized intensity) came out at 1.63.

With CTGCTCTGTTTTCTTTCGGTCACCCACACA, the binding signal (log2 normalized intensity) stood at 1.65.

Regarding TCTCTTCTTCCCCTCCTTCAGGTCAAGAGG, the binding signal (log2 normalized intensity) was determined as 2.58.

In the case of GTCCATCCTGTCTCACCAGACCAAGAGCTT, the binding signal (log2 normalized intensity) was -0.911.

In the case of AGGAAGCATCCTATAGGCCTATAATTAGGT, the binding signal (log2 normalized intensity) was -1.06.

Take TCCTCTGGATACCCTTCCCCCCAAGGCTTC: the binding signal (log2 normalized intensity) is 5.27.

For the sequence TAGGCCAGGCGGAGCACACCAGGCCCTCGG, the binding signal (log2 normalized intensity) was -0.933.

AATGATCTTGGCTGCTTTAGACATGAGATA: the binding signal (log2 normalized intensity) is -0.202.

Take CTGCCTCTTCAGGAGGCACTGATAAGCGTA: the binding signal (log2 normalized intensity) is -1.1.

Consider GGACAGGAGCTCATACCTCTTACCAGATAG, for which the binding signal (log2 normalized intensity) is -1.14.

In the case of TCACAATGGGGCATGACTTGTTATCACCTG, the binding signal (log2 normalized intensity) is 0.82.

Turning to AGAGCAGGGCCCGAGGCCTTGAGCATACAA, the binding signal (log2 normalized intensity) is -1.04.

As for CCTTTGTCTCCAGGCAAACTACAGTTTCTG, the binding signal (log2 normalized intensity) is -0.0604.

Consider AGTTGTTGTGAGAGTGAGGTGACTTGTCCT, for which the binding signal (log2 normalized intensity) was found to be 1.86.

In the case of AACCTCCTCCAGGTTCTCATACCTTCTGCT, the binding signal (log2 normalized intensity) was -1.13.

Consider TAAGATTTGGAAAATATTGCCAATATCTGC, for which the binding signal (log2 normalized intensity) is -1.21.

Turning to GAAGAAAACAATGACCTCTGCACCCTTCCC, the binding signal (log2 normalized intensity) is 4.1.

Turning to CTGCTGGCTGAGCATCACCAGTGCAGCTGA, the binding signal (log2 normalized intensity) was -1.01.

With TCTGGTAAATTTCTAACACTCCCCAGGACA, the binding signal (log2 normalized intensity) turned out to be 2.9.

On to TCTAGAAGAGGTTAAAGACCTTTGGGTAGG, for which the binding signal (log2 normalized intensity) was 2.02.

As for CATGTGGGTCCAAAGAACATTGCATTCCTT, the binding signal (log2 normalized intensity) was 1.55.

Turning to CTGCAGAGGGACTGACTCCCTTTTCAACAA, the binding signal (log2 normalized intensity) was -1.18.

Consider AACCAAAGGATTATTACATGTTTACCCACA, for which the binding signal (log2 normalized intensity) amounted to 0.244.

For GGGCAAATGGAAGAATCACAGTGTGGGGCA, the binding signal (log2 normalized intensity) was -0.192.

For the sequence AGTTTTCTCTGTCCCAAGAGCAAGAAGGTC, the binding signal (log2 normalized intensity) was 1.81.

With TCAGAAAACCCACGCCCACCCTATTGATGC, the binding signal (log2 normalized intensity) was 2.81.

Take ACCCAGGTATGACAAGCATGCACTGGGGTT: the binding signal (log2 normalized intensity) was -0.879.

As to TGGTAAGTGCAAGGCCCAGCTAGAAGCAGT, the binding signal (log2 normalized intensity) was -1.06.

Turning to CAGGATCCAAGATCCAACTCTGAAGATTCA, the binding signal (log2 normalized intensity) was -1.16.

Turning to ACTGATAAGGTTCCAGCAAAGAGATTAGGA, the binding signal (log2 normalized intensity) is -1.03.

Turning to CTTTCTTTGTCTGTGTAGACTCATCTGGTG, the binding signal (log2 normalized intensity) was found to be 1.87.

For the sequence ACATTGTCCATCACCTGGCTCTGAAAAACA, the binding signal (log2 normalized intensity) was -1.22.

In the case of AGAGGTGAGAGCAGAATGAGCAAGGTGGGT, the binding signal (log2 normalized intensity) stood at 0.0131.

With TTCTGCTTCTTCTCATTCTTGGAATAAGCA, the binding signal (log2 normalized intensity) was -1.11.

Consider AGCTTCAAAGGACAGGCTGACTATCACTGG, for which the binding signal (log2 normalized intensity) was -1.12.

With CGGTTCCGGGCGGCAGCACAAGGCGGTAGC, the binding signal (log2 normalized intensity) was -1.14.

With ACACAGCTTGGAGCTCCTTGTGAGCAGGAT, the binding signal (log2 normalized intensity) is -1.07.

On to AAGGGTAAAGATTATGAACTAATTTGTCTT, for which the binding signal (log2 normalized intensity) was -0.796.

For the sequence TCGGTTTTCAAATGAACCCGGCAGGCGGGA, the binding signal (log2 normalized intensity) was 1.82.

For the sequence AGATGTAAACATCATTCACGTGCCTGAGAT, the binding signal (log2 normalized intensity) is -1.12.

On to CATACAGGCCAGCTGTCTGGTTTGACCTTA, for which the binding signal (log2 normalized intensity) was 5.34.

ACTGCAACCTGATAAGATTTTAGAAGTCAC: the binding signal (log2 normalized intensity) is -1.16.

In the case of GTGTCAGAGAAGGAGCCAGAGCTTTGGGAA, the binding signal (log2 normalized intensity) is -1.3.

For GGAAACTCCATTTCCTTCTAGCTCCCCAAT, the binding signal (log2 normalized intensity) was 3.53.

On to CAGGATTACTATAGGTTCTACTCTCCCCAG, for which the binding signal (log2 normalized intensity) stood at 2.14.

As to ACCAGACAAGATCAATCAATTTACCTCTGC, the binding signal (log2 normalized intensity) is -1.27.

On to TGGGAACTGCGGACATAGCTTGCCACAGCA, for which the binding signal (log2 normalized intensity) is -1.21.

For TGCTTGTCTTGGTTGTAGAAGGCTTAAGAT, the binding signal (log2 normalized intensity) came out at 1.01.

On to CCTCCCCCCTTGGCTACATGTTTGTCTTTC, for which the binding signal (log2 normalized intensity) was 2.57.

Consider CCCAGTGCTCTCTCCTGCATTCCTGTCCAC, for which the binding signal (log2 normalized intensity) was determined as 0.573.

On to CTCCACTCTCATAAAAGAGGCCAATTTCTT, for which the binding signal (log2 normalized intensity) stood at 0.664.

For TGAGACTTTCCTGTTGGGGAGCAAAGGTTA, the binding signal (log2 normalized intensity) came out at 5.31.

For the sequence ATAGTTTGACTTTCTCTCTTCCTATTCAGA, the binding signal (log2 normalized intensity) is -1.05.

TCTGCCATCTACTAAGTGCTTAGTATGTGC: the binding signal (log2 normalized intensity) was 1.11.

In the case of AGGTGTTCTTTCCCTCCAGCCCACTTACCA, the binding signal (log2 normalized intensity) is 2.05.

With CATAATTGCAAAATCCTTAGCAAATAGAGA, the binding signal (log2 normalized intensity) was -1.14.

As for TTGGAAAAAAAAAAAAAAAAAAGAACACAG, the binding signal (log2 normalized intensity) was -1.08.

Turning to GCATGCCATTTTGCAATTGACAAATGGCTT, the binding signal (log2 normalized intensity) is -0.987.

For the sequence TCTGGATGGCTGAGCTGTAAGGACATAAGC, the binding signal (log2 normalized intensity) was -0.971.

Consider CTCCAGGGACTGAGGGAGGGAGGAGGGACT, for which the binding signal (log2 normalized intensity) is -1.08.

For CTCCAAGGGTATAGGATAAGGAATGAAGCA, the binding signal (log2 normalized intensity) is -0.684.

Regarding ACTCCGGGGAGCAGGCAGAGGAACAGAGGG, the binding signal (log2 normalized intensity) was -1.04.

For the sequence CTGTTCACATGCTAATTACGGGCAGAGCTG, the binding signal (log2 normalized intensity) was -0.0137.

As for TCTCAGTGGGTGGGAAAGGGTGCTCCAGGC, the binding signal (log2 normalized intensity) is -1.02.

TTCCTTATCTGGAATTCCTCCTCCTGTTTG: the binding signal (log2 normalized intensity) amounted to 0.849.

For the sequence TGAAATTCAACAGAACTGTTTGAGGGTAAA, the binding signal (log2 normalized intensity) came out at 0.467.

For the sequence GCCCAAGATAACCTCCCCTCTGACCAGAGA, the binding signal (log2 normalized intensity) was determined as 1.94.

For the sequence GTACAGGCAGTGACTGGACCACGATCAGCC, the binding signal (log2 normalized intensity) is -1.09.

TGAAGGCAGGGCTTTTCCATTGACAGTCCA: the binding signal (log2 normalized intensity) was -1.
